{
  "source": "PubChem BioAssay AID493168",
  "about": "(National Center for Advancing Translational Sciences (NCATS), 2011)",
  "note": "Inconclusive results, whose numbers are uncertain, are shown with a selection of clear calls. Potencies of inconclusive entries are left out as doubtful fits. The source made the active and inactive calls. Calls come from the whole dose curve; as a rule, active = well fitted inhibition curve with a large enough effect; inconclusive = small, poorly fitted or top-dose-only effect, or effect the other way; inactive = flat fitted curve, though single readings scatter. Potency is the fitted concentration of half-maximal effect; tags give direction and shape of the fitted curve.",
  "data": [
    {"target": "Ubiquitin carboxyl-terminal hydrolase 2 (Homo sapiens) (UniProt O75604)", "sequence (O75604 whole entry, looked up)": "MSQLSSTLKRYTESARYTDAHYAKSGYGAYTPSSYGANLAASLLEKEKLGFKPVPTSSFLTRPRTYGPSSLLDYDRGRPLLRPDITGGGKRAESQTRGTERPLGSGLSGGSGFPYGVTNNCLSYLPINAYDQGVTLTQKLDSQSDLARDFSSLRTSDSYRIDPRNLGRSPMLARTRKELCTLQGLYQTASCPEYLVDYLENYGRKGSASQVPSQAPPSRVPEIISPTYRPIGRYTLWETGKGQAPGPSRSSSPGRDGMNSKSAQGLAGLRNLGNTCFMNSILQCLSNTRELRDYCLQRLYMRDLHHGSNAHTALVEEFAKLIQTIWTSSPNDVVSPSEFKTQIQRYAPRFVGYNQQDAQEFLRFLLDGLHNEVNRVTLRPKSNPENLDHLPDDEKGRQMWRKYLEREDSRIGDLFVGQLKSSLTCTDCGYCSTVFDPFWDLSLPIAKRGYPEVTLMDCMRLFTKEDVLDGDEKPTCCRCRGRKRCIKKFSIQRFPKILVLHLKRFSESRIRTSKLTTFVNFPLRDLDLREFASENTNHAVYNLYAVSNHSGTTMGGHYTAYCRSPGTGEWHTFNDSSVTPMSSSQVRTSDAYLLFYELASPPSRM", "assay": "Confirmation Assay for Inhibitors of Ubiquitin-specific Protease USP2a Using CHOP2 as the Reporter; note: nearly all actives have a fitted effect of over 55% in size;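 for activity change, negative = inhibition: plate controls were DMSO wells for no effect and full inhibition by NEM control for full effect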", "conditions": "USP2 core, Ub-CHOP2 coupled reporter fluorescence; series mostly up to 38.3 µM; activity change, negative = inhibition: at the top concentration", "procedure,_shortened": "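USP2 core (10 nM final) was preincubated with compound for 30 min at RT in Tris-HCl pH 8.0, CaCl2, beta-mercaptoethanol, CHAPS. Ub-CHOP2 and reporter substrate (25 nM final each) were added, and fluorescence (Ex 485/Em 531 nm) was read after 60 min.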", "values": [
      {"smiles": "Cc1ccc([C@H]2C(C(=O)O)=CC[C@@H](c3ccc(Cl)cc3)N2S(=O)(=O)c2ccc(C)cc2)cc1", "Potency": "inconclusive [inhibitor, partial curve, poor fit]"},
      {"smiles": "O=C(COC(=O)c1c2c(nc3ccccc13)/C(=C/c1ccco1)CC2)NC1CCCC1", "Potency": "active: 14.7 µM"},
      {"smiles": "CCCCc1ccc(/C=C2/C(=O)ON=C2c2ccccc2)s1", "activity change, negative = inhibition": "inactive: -0.0359%"},
      {"smiles": "NS(=O)(=O)c1cc(C(=O)NC2CCSc3ccccc32)ccc1Cl", "note": "(stereo not given)", "Potency": "active: 13.1 µM"},
      {"smiles": "NS(=O)(=O)c1ccc(NC(=O)/C=C/c2cn(-c3ccccc3)nc2-c2cccc(Cl)c2)cc1", "Potency": "inconclusive [inhibitor, partial curve, poor fit]"},
      {"smiles": "CCCCCCCCCCOC(=O)Cn1c(COc2ccccc2OC)[n+](C)c2ccccc21", "Potency": "inconclusive [inhibitor, single point]"},
      {"smiles": "CCC(C)NC(=O)CSC1=Nc2ccccc2C2=NC(c3ccccc3)C(=O)N12", "note": "(stereo not given)", "activity change, negative = inhibition": "inactive: 0.631%"},
      {"smiles": "CC(=O)Nc1ccc(NC(=O)C2CCCN(S(=O)(=O)c3ccc(Cl)cc3)C2)cc1", "note": "(stereo not given)", "activity change, negative = inhibition": "inactive: 10.2%"},
      {"smiles": "O=[N+]([O-])c1cc(-c2ccc(/C=N\\n3cnnc3)o2)cc([N+](=O)[O-])c1", "Potency": "inconclusive [inhibitor, partial curve, poor fit]"},
      {"smiles": "O=C1Nc2ccc(S(=O)(=O)N3CCCCCC3)c3cccc1c23", "activity change, negative = inhibition": "inactive: -0.6%"},
      {"smiles": "CN=c1scc(-c2ccccc2F)n1/N=C/c1ccc(O)c(O)c1O", "Potency": "inconclusive [inhibitor, partial curve, poor fit]"},
      {"smiles": "COC(=O)c1[nH]c2ccccc2c1NC(=O)CN1CCCc2ccccc21", "activity change, negative = inhibition": "inactive: -0.131%"},
      {"smiles": "COc1ccc(-n2c(=S)[nH]c3cc(C(=O)Nc4cc(OC)c(OC)c(OC)c4)ccc3c2=O)c(OC)c1", "activity change, negative = inhibition": "inactive: -0.814%"},
      {"smiles": "COC(=O)c1[nH]c(=O)c2ccccc2c1OCc1ccccc1", "activity change, negative = inhibition": "inactive: -3.77%"},
      {"smiles": "CCc1ccc([C@@H]2CC=C(C(=O)O)[C@H](c3ccc(C(C)(C)C)cc3)N2S(=O)(=O)c2ccc(C)cc2)cc1", "Potency": "inconclusive [inhibitor, single point]"},
      {"smiles": "CC1CCCC(NC(=O)C2N(CCCN3CCCC3)C(=O)C3C(C(=O)Nc4ccc(Cl)cc4)C4C=CC32O4)C1C", "note": "(stereo not given)", "activity change, negative = inhibition": "inactive: 0.321%"},
      {"smiles": "Cc1cc(C)cc(OCC(=O)Nc2ccc(N3CCCC3)cc2)c1", "Potency": "inconclusive [inhibitor, single point]"},
      {"smiles": "NS(=O)(=O)c1ccc(CCNC(=O)c2cc3ccccc3s2)cc1", "Potency": "inconclusive [inhibitor, single point]"},
      {"smiles": "O=C(O)CN1C(=O)/C(=C\\c2ccccc2OCc2ccc(Cl)cc2Cl)SC1=S", "Potency": "inconclusive [inhibitor, single point]"},
      {"smiles": "Cc1cc(SCC(=O)Nc2ccccc2)nc(C)n1", "activity change, negative = inhibition": "inactive: -0.745%"},
      {"smiles": "CCOC(=O)N1CCN(C(=O)CN(c2cccc(C)c2)S(=O)(=O)c2ccccc2)CC1", "activity change, negative = inhibition": "inactive: -1.01%"},
      {"smiles": "Cc1cccc(OCC(=O)Nc2ccc(N3CCCC3)cc2)c1C", "Potency": "inconclusive [inhibitor, partial curve, poor fit]"},
      {"smiles": "FC(F)(F)c1cnc2c(c1)Nc1ccccc1S2", "activity change, negative = inhibition": "inactive: 0.666%"},
      {"smiles": "CC(C)OCCCNC(=O)c1c(N)n(/N=C/c2ccccn2)c2nc3ccccc3nc12", "activity change, negative = inhibition": "inactive: -0.772%"},
      {"smiles": "Cc1ccc(S(=O)(=O)N2[C@@H](c3ccccc3F)C(C(=O)O)=CC[C@H]2c2ccc(Cl)c(Cl)c2)cc1", "Potency": "inconclusive [inhibitor, single point]"},
      {"smiles": "COc1cccc(-n2c(SCc3cc(=O)oc4cc(O)c(O)cc34)nc3ccccc3c2=O)c1", "Potency": "inconclusive [inhibitor, single point]"},
      {"smiles": "CCCCCCCCCCCCCCCCn1cc[n+](C)c1", "Potency": "inconclusive [inhibitor, single point]"},
      {"smiles": "COc1ccc(Cl)cc1C(=O)Nc1cccc(-c2ccc3nncn3n2)c1", "Potency": "inconclusive [inhibitor, partial curve]"},
      {"smiles": "O/C=c1\\ccc2cccc3nc(C(F)(F)F)nc1c23", "Potency": "inconclusive [activator, partial curve]"},
      {"smiles": "COc1ccc(C(=O)Nc2ccc(N3CCCC3)cc2)cc1OC", "activity change, negative = inhibition": "inactive: 1.15%"},
      {"smiles": "Cc1ccc(C2(C)NC(=O)N(CC(=O)c3ccc(Cl)s3)C2=O)cc1", "note": "(stereo not given)", "Potency": "inconclusive [inhibitor, single point]"},
      {"smiles": "Cc1cccc(C)c1-n1cccc1/C=C1\\SC(=S)N(c2cccc(C(=O)O)c2)C1=O", "Potency": "inconclusive [inhibitor, single point]"},
      {"smiles": "CCCCCCCCCS(=O)(=O)N/N=C/c1cccc([N+](=O)[O-])c1", "Potency": "inconclusive [inhibitor, single point]"},
      {"smiles": "Cc1cc(NS(=O)(=O)c2ccc(Nc3nc(-c4ccc(C)c(C)c4)cs3)cc2)no1", "Potency": "inconclusive [inhibitor, single point]"},
      {"smiles": "Cc1ccc(C2=NC(=O)/C(=C/c3cc(O)c(O)c(Br)c3)S2)cc1", "Potency": "active: 7.36 µM"},
      {"smiles": "O=C(CCSCc1ccc(Cl)cc1)NCCc1ccccc1", "activity change, negative = inhibition": "inactive: -2.88%"},
      {"smiles": "Cc1cccc(N=C2NC(=O)/C(=C/C=C/c3ccco3)S2)c1", "Potency": "inconclusive [inhibitor, single point]"},
      {"smiles": "C#CCOCCOCCOCCNc1nc(N2CCN(C(=O)CCCCCCCCCCNC(=O)Cn3cc(C[C@@H](C)O)nn3)CC2)nc(N2CCN(C(=O)CCCCCCCCCCNC(=O)[C@@H]([C@H](C)CC)n3cc(CCCCCN)nn3)CC2)n1", "Potency": "active: 11.7 µM"},
      {"smiles": "N=c1sccn1CC(=O)Nc1ccc(S(=O)(=O)N2CCOCC2)cc1", "Potency": "inconclusive [activator, partial curve, poor fit]"},
      {"smiles": "CS(=O)(=O)c1nc(-c2ccc(Br)cc2)cc(-c2ccccc2)c1C#N", "activity change, negative = inhibition": "inactive: -2.62%"}
    ]}
  ]
}
